# According to PubChem BioAssay AID1508623 (National Center for Advancing Translational Sciences (NCATS), 2021):
# The campaign covered roughly 48,000 compounds. About 450 (0.94%) were called active. Roughly 19% stayed inconclusive and do not appear here. Calls come from the whole dose curve; as a rule, active = well fitted inhibition curve with a large enough effect; inconclusive = small, poorly fitted or top-dose-only effect; inactive = no such curve, though single readings can be large or run the other way. The list shows a part of the results.
# Test: Primary qHTS for Identification of Small Molecule Inhibitors of Huntingtin Promoter Activity; note: nearly all actives have a fitted effect of over 50% in size
# Conditions: HEK293 HTT promoter firefly luciferase reporter (activity 0% = vehicle and -100% = no light), 24 h; series mostly up to 57.5 µM; activity change, negative = inhibition: at the top concentration
# Summary of the method: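 HEK293 Fluc reporter, 2,500 cells/well, 24 h pre-culture; cpds up to 57.5 uM final, 24 h 37 degrees C; Dual-Glo, 10 min RT; normalized vehicle = 0%, zero RLU = -100%.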
# Potency is the fitted concentration of half-maximal effect.
SMILES,"activity change, negative = inhibition",Potency
O=C(CSc1nc2ccccc2nc1Cc1ccc(Cl)cc1)NCCc1ccccc1,inactive: -6.13%,–
CCOc1ccccc1NC(=O)c1nnn(CC(=O)Nc2ccc(OC)c(OC)c2)c1N,inactive: -18.5%,–
COc1ccc(OC)c(C(C)NC(=O)Cn2c(=O)cc(C)c3c(C)nn(-c4ccc(C)cc4)c32)c1 (configuration not stated),inactive: -1.9%,–
Cc1ccc(C)c(N2CCN(Cc3csc(C)c3C)CC2)c1,inactive: -21.6%,–
COc1ccccc1-c1cc(C(=O)N2CCCCC2C)no1 (configuration not stated),inactive: 45.9%,–
CCCCC(=O)Nc1ccc2nc(SCC(=O)N3CCCC3)sc2c1,inactive: 23.8%,–
Nc1c(-c2nc(-c3cccs3)no2)nnn1-c1cccc(Cl)c1,inactive: 54.4%,–
COc1ccc(CNC(=O)c2nn(-c3ccccc3C)nc2CO)cc1,inactive: -19.7%,–
CCc1ccc(Nc2ncnc3c2cnn3-c2cc(Cl)ccc2C)cc1,inactive: -12.5%,–
COc1cccc(CNC(=O)C(NS(=O)(=O)c2ccc3c(c2)CCN3C(C)=O)C(C)C)c1 (configuration not stated),inactive: -13.1%,–
CCOc1ccccc1CC1C(=O)Nc2ccc(Br)cc21 (configuration not stated),–,active: 17.8 µM
CC=C(C(=CC)c1ccc(O)cc1)c1ccc(O)cc1,inactive: -31%,–
CCn1cc(C(=O)OCC(=O)Nc2ccc(F)cc2F)c(=O)c2ccc(C)nc21,inactive: -12.9%,–
Cc1cccc(-c2nc(Cn3c(=O)cc(-c4ccccc4)c4c(C)nn(C)c43)c(C)o2)c1,inactive: 4.01%,–
CCCn1c2ccccc2c2cnn(CC(=O)NCCc3ccccc3)c(=O)c21,inactive: -23.4%,–
COC(=O)c1ccc(Cn2c(=O)cc(C(F)(F)F)c3c(C)nn(C)c32)cc1,inactive: -17.6%,–
CCN(c1ccc(OC)cc1)S(=O)(=O)c1ccc2[nH]c(=O)ccc2c1,inactive: -26.3%,–
CCOc1ccc(S(=O)(=O)N(CC(=O)NCCSc2ccccc2)c2ccccc2)cc1,inactive: -9.56%,–
O=C(Cn1c2ncccc2c(=O)n1-c1ccccc1)Nc1ccc(F)c(F)c1,inactive: 15%,–
Cc1cc(N2CCCCC2)nc2ccc(NC(=O)/C=C/c3ccccc3Cl)cc12,inactive: -28.1%,–
CCc1ccccc1NC(=O)NCc1ccc2c(c1)CCN2C(=O)c1ccccc1,inactive: -9.77%,–

SMILES,"activity change, negative = inhibition",Potency
O=C(Nc1ccccc1C(=O)OCc1cc(=O)n2c3c(sc2n1)CCCC3)c1cccc(Cl)c1,inactive: -9.04%,–
O=C(CSc1nccn1Cc1ccccc1)NCc1ccccc1Cl,inactive: 4.53%,–
CCOC(=O)CC(NC(=O)N1CCC(CN2CCC(C)CC2)CC1)c1ccccc1 (configuration not stated),inactive: -3.19%,–
CC(C)Cn1cc(NC(=O)N2CCN(c3ccccc3F)CC2)c2ccccc2c1=O,inactive: -9.27%,–
CC1(C)[C@@H]2CC[C@@]1(C)C(=O)C2,inactive: 6.63%,–
Cc1cccc(CNC(=O)CCn2ccc3cc(S(=O)(=O)N4CCCC4)ccc32)c1,inactive: -26.1%,–
COc1ccc(-c2cn3nc(N4CCCC(C(=O)NCc5ccccc5Cl)C4)sc3n2)cc1 (configuration not stated),inactive: -6.42%,–
COc1ccc(OC)c(CCNC(=O)c2cnn(-c3ccccc3)c2C2CCN(C(=O)OC(C)(C)C)CC2)c1,inactive: -16%,–
O=c1c(N2CCN(c3cccc(C(F)(F)F)c3)CC2)csc2ccc(Cl)cc12,inactive: 6.06%,–
COc1cc(OC)cc(N2CCN(S(=O)(=O)c3ccc(-n4cnnn4)cc3)CC2)c1,inactive: -1.27%,–
COC(=O)c1cc2oc3ccccc3c2n1Cc1cc(C)ccc1C,inactive: -10.1%,–
Cc1nn(C)c2c1c(-c1ccccc1)cc(=O)n2C(C)C(=O)NCc1ccc(F)cc1 (configuration not stated),inactive: 0%,–
O=C1CC(c2ccccc2)Cc2[nH]c(=O)c(-c3nc(-c4ccc(Cl)cc4)cs3)cc21 (configuration not stated),inactive: -33.8%,–
CCN1CCN(C(c2cccc(F)c2)c2c(O)cc(C)n(Cc3ccco3)c2=O)CC1 (configuration not stated),inactive: -4.32%,–
CC(=O)c1cccc(NC(c2ccc(F)cc2)c2nnc(-c3ccccc3)o2)c1 (configuration not stated),inactive: -27.1%,–
Cc1ccc(-n2nnnc2CNC(=O)C(C)C)cc1C,inactive: 1.74%,–
CCSc1nnc2c(n1)OC(CC)N(C(C)=O)c1ccccc1-2 (configuration not stated),inactive: -13.7%,–
O=C(NCCC1=CCCCC1)c1ccc2c(c1)ncn2-c1ccc(F)c(F)c1,inactive: 14.3%,–
O=c1c2c(-c3ccc(Cl)cc3)ccnc2[nH]n1-c1ccccc1,inactive: -3.94%,–
CCN(Cc1ccccc1)Cc1c(O)ccc2c(=O)c(-c3ccccc3Cl)c(C(F)(F)F)oc12,inactive: -10.5%,–
COc1ccc(OC)c(C2c3c(oc4ccc(C)cc4c3=O)C(=O)N2CCCN(C)C)c1 (configuration not stated),inactive: -12.5%,–

SMILES,"activity change, negative = inhibition",Potency
O=C(NCc1cccc(F)c1)c1cccc(NC(=O)c2nsc3ccccc23)c1,inactive: 20.4%,–
C=Cc1c(C)c2cc3[nH]c(cc4nc(cc5nc(cc1[nH]2)C(C)=C5CCC(=O)O)C(CCC(=O)O)=C4C)c(C)c3C=C,inactive: 1.19%,–
CC(=O)Nc1cccc(NC(=O)c2c(-c3ccccc3)c(-c3ccccc3)nn(C)c2=O)c1,inactive: -0.399%,–
CCCN(CCC)C(=O)CSc1nc2sc3c(c2c(=O)n1-c1ccccc1)CCN(C(C)=O)C3,inactive: -3.11%,–
CCc1ccc(-n2nc3ccc(NC(=O)c4ccc(C#N)cc4F)cc3n2)cc1,inactive: -4.79%,–
Cc1cccc(-n2ncc3c(NC4CCCC4)ncnc32)c1,inactive: 3.86%,–
COc1cccc(CNC(=O)C2CCN(c3nnc(-n4c(C)ccc4C)s3)CC2)c1,inactive: -15.3%,–
CCOc1ccc(-c2nnc(SCC(=O)NCc3ccc(C)cc3)nc2-c2ccc(OCC)cc2)cc1,inactive: 2.55%,–
CCC(CC)C(=O)Nc1cccc(-c2nc3ccccc3s2)c1,inactive: -13.6%,–
Fc1ccc(-c2cn3cc(Cc4ccc(Cl)cc4)sc3n2)cc1,inactive: 3.12%,–
CCC(C(=O)Nc1cc(-c2nc3cccnc3s2)ccc1C)c1ccccc1 (configuration not stated),inactive: 22.2%,–
CCOc1ccccc1C1CC(=O)Oc2c1c(=O)n(C)c1ccccc21 (configuration not stated),inactive: -2.3%,–
Cc1ccc(Cl)cc1NC(=O)Cn1c(=O)c2ccccc2n2nncc12,inactive: -10.5%,–
Cc1ccccc1-c1nc2cc(NC(=O)COc3ccc(F)cc3)ccc2o1,inactive: 77.2%,–
CC1=C(C(=O)Nc2ccc(C)cc2C)C(c2ccccc2)n2ncc(C(=O)Nc3ccccc3)c2N1 (configuration not stated),inactive: -32.8%,–
CCOC(=O)c1c(-c2ccccc2)csc1NC(=O)c1cc(-c2ccc(Cl)cc2)on1,inactive: -3.59%,–
COC(=O)c1ccc2c(=O)n(CCCCCC(=O)N3CCN(c4ccc(OC)cc4)CC3)c(=O)[nH]c2c1,inactive: -6.56%,–
CCOC(=O)c1sc(NC(=O)c2cc(-c3ccc(F)cc3)on2)c(C(=O)OCC)c1C,inactive: -5.19%,–
Cc1c(CC(=O)NCCc2ccc(Cl)cc2)c(=O)oc2c(C)c3occ(C(C)(C)C)c3cc12,inactive: -3.25%,–
Cc1ccc(NC(=O)C2CCCN(S(=O)(=O)c3cccc4cccnc34)C2)c(C)c1 (configuration not stated),inactive: -20.8%,–
